In ChEMBL document CHEMBL5724801, “EUbOPEN Chemogenomics Library - Multiplex” (2024):

Experiments:
Assay type in all cases: toxicity, cell-based
Fibroblast = experiment: Multiplex assay against human fibroblast
Method in brief: (§1)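 On a CQ1 microscope at 37°C and 5% CO2, live cells were imaged after compound addition. They had been stained at seeding with Hoechst33342, BioTracker Green Microtubule Cytoskeleton Dye, MitoTracker Red and Annexin V Alexa Fluor 680. CellPathfinder machine-learning gating assigned cells to Hoechst high-intensity objects or normal cells, normal cells to healthy, pyknosed or fragmented nuclei, and pyknosed cells to mitotic or apoptotic. Tubulin, mitochondrial-mass and membrane-permeability phenotypes are per cents of healthy-nucleus cells.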

HEK-293T = experiment: Multiplex assay against HEK293T; details: human; method in brief: as §1
U2OS = experiment: Multiplex assay against U2OS; details: human; method in brief: as §1
[1] = 12 h, 10 µM, compound concentration 10 uM
[2] = 24 h, 10 µM, compound concentration 10 uM
[3] = 48 h, 10 µM, compound concentration 10 uM
[4] = 48 h, 1 µM, compound concentration 1 uM
[5] = 12 h, 1 µM, compound concentration 1 uM
[6] = 24 h, 1 µM, compound concentration 1 uM

## COCCn1c(C)c(C)s/c1=N\C(=O)C1C(C)(C)C1(C)C
Fibroblast; [1]
  Population Membrane Permeable-Phenotype (%): 1% and 13%
HEK-293T; [1]
  Population Fragmented Nuclei (%): 33% and 8%
  Total Cell Count: 80 and 315
HEK-293T; [2]
  Total Cell Count: 101 and 376
U2OS; [3]
  Population Mitotic Cells (%): 18% and 4%

## CC(C)c1ccc(/C=N/NC(=O)c2ccc(O)cc2)cc1
Fibroblast; [1]
  Population Apoptotic (%): 4.44% and 22.92%
Fibroblast; [2]
  Population Apoptotic (%): 4.76% and 16.67%
Fibroblast; [4]
  Population Mitochondria Different-Phenotype (%): 13.78% and 3.57%
HEK-293T; [5]
  Population Tubulin-Different-Phenotype (%): 5.8% and 31.25%
HEK-293T; [1]
  Population Healthy Nuclei (%): 53.52% and 14.94%
  Population Tubulin-Different-Phenotype (%): 4.74% and 26.09%
HEK-293T; [6]
  Total Cell Count: 566 and 168
HEK-293T; [4]
  Population Pyknosed Nuclei (%): 11.47% and 44.61%
  Population Tubulin-Different-Phenotype (%): 2% and 34.55%
  Total Cell Count: 1345 and 204
HEK-293T; [3]
  Total Cell Count: 1379 and 207
U2OS; [2]
  Total Cell Count: 535 and 177
U2OS; [3]
  Total Cell Count: 992 and 292

## S=c1[nH]nc(-c2cccs2)n1-c1ccccc1
Fibroblast; [1]
  Population Fragmented Nuclei (%): 18.22% and 5.29%
Fibroblast; [6]
  Population Apoptotic (%): 6.45% and 23.81%
Fibroblast; [4]
  Population Tubulin-Different-Phenotype (%): 2.31% and 17.65%
Fibroblast; [3]
  Population Tubulin-Different-Phenotype (%): 6.44% and 21.26%
HEK-293T; [5]
  Population Healthy Nuclei (%): 53.58% and 14.84%
  Population Tubulin-Different-Phenotype (%): 7.64% and 43.48%
HEK-293T; [1]
  Population Healthy Nuclei (%): 58.88% and 16.9%
  Population Mitochondria Different-Phenotype (%): 40.7% and 12.5%
HEK-293T; [6]
  Population Healthy Nuclei (%): 72.88% and 24.18%
HEK-293T; [2]
  Population Healthy Nuclei (%): 75.05% and 24.64%
  Population Pyknosed Nuclei (%): 23.17% and 72.46%
  Total Cell Count: 505 and 138
HEK-293T; [4]
  Population Apoptotic (%): 5.93% and 22.39%
  Population Pyknosed Nuclei (%): 10.01% and 32.21%
  Population Tubulin-Different-Phenotype (%): 1.78% and 46.04%
  Total Cell Count: 1349 and 208
HEK-293T; [3]
  Population Pyknosed Nuclei (%): 10.33% and 33.13%
  Population Tubulin-Different-Phenotype (%): 1.32% and 29.13%
  Total Cell Count: 1220 and 163
U2OS; [4]
  Total Cell Count: 1053 and 318
U2OS; [3]
  Total Cell Count: 971 and 314

## O=C(CCCc1ccccc1)Nc1nc2ccccc2c(=O)s1
Fibroblast; [1]
  Population Membrane Permeable-Phenotype (%): 1% and 13%
  Population Mitochondria Different-Phenotype (%): 4% and 17%
Fibroblast; [2]
  Population Mitochondria Different-Phenotype (%): 3% and 14%
  Population Tubulin-Different-Phenotype (%): 15% and 62%
Fibroblast; [3]
  Population Mitochondria Different-Phenotype (%): 2% and 14%
HEK-293T; [2]
  Population Hoechst High Intensity Objects (%): 6% and 24%
HEK-293T; [3]
  Population Apoptotic (%): 22% and 68%
U2OS; [5]
  Population Mitotic Cells (%): 7% and 44%
U2OS; [1]
  Population Mitotic Cells (%): 28% and 0%

For part of its entries the source gives two or more results. They are shown here; other results are not. The source may hold further records. Values that stand side by side are repeated measurements across runs, samples, wells, individuals or studies.
